Data reported in US20190345207A1 (Pieris, published 2019).

T1: huLAG-3-Fc (human LAG-3 extracellular domain fused to human IgG1 Fc fragment, R&D systems) (human, UniProt P18627 23-450)
T1 construct: extracellular domain; Bought from R&D Systems; also called human LAG-3-Fc fusion; not shown: human IgG1 Fc fragment
T1 sequence (looked up): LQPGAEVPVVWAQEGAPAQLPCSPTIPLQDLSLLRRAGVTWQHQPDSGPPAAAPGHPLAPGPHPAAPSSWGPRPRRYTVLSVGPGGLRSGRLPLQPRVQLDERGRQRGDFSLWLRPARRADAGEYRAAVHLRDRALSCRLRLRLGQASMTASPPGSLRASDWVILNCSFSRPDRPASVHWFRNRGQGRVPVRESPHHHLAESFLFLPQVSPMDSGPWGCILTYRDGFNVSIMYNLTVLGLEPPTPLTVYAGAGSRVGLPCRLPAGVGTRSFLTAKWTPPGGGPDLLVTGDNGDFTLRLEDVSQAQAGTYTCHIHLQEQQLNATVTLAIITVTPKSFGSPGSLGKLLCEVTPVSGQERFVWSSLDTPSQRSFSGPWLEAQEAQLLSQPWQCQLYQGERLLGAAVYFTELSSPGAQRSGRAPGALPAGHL

T2: human LAG-3 on CHO cells stably transfected with huLAG-3 (CHO-huLAG-3) (human, UniProt P18627 23-525)
T2 construct: whole, on cells; also called CHO::human LAG-3
T2 sequence (looked up): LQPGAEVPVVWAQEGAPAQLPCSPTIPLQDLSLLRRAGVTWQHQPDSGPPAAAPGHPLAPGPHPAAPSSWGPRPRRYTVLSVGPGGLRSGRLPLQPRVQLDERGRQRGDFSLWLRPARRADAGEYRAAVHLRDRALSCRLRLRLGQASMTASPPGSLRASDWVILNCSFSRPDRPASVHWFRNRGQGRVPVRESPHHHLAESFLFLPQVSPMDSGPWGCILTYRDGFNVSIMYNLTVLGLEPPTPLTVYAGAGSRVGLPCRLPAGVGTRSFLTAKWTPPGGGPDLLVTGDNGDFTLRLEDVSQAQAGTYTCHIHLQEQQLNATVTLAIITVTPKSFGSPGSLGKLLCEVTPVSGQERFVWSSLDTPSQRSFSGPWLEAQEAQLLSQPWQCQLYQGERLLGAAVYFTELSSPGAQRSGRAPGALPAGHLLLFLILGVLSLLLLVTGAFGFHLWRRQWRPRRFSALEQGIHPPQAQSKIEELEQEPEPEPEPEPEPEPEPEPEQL

B1: lipocalin mutein SEQ ID NO: 7 (designed binder)
chain: ASDEEIQDVSGTWYLKAMTVDSDCFWIDDVSVTPMTLTTLEGGNLEAKVTMDIFGFWQEVKAVLEKTDEPGKYTADGGKHVAYIIRSHVKDHYIFYSEGECAGYPVPGVWLVGRDPKNNLEALEDFEKAAGARGLSTESILIPRQSETSSPG
notes: Parental LAG-3 specific hTlc mutein; also called parental lipocalin mutein
B2: lipocalin mutein SEQ ID NO: 24 (designed binder)
chain: ASDEEIQDVPGTWYLKAMTVSSEDPEMTLESVTPMTLTTLEGGNLEARVTVLIDGRCQEVKNVLEKTDEPGKYTEDGGKYVDYIIRSHVKDHYIFYFEGEGQGTPGRMVALVGRDPTNNLEALEDFEKAAGARGLSTESILIPRQSETCSPGSAWSHPQFEK
notes: also called optimized LAG-3 specific lipocalin mutein
B3: lipocalin mutein SEQ ID NO: 20 (designed binder)
chain: ASDEEIQDVPGTWYLKAMTVSDEDPEMTLESVTPMTLTTLEGGNLEARVTVLIDGRCQEVKNVLEKTDEPGKYTEDGGKYVDYIIRSHVKDHYIFYFEGEGHGTPGRMVALVGRDPTNNLEALEDFEKAAGARGLSTESILIPRQSETCSPGSAWSHPQFEK
notes: as for B2
B4: lipocalin mutein SEQ ID NO: 21 (designed binder)
chain: ASDEEIQDVPGTWYLKAMTVSEEDPELTLESVTPMTLTTLEGGNLEARVTVLIDGRCQEVKNVLEKTDEPGKYTEDGGKYVDYIIRSHVKDHYIFYFEGEGQGTPGRMVALVGRDPTNNLEALEDFEKAAGARGLSTESILIPRQSETCSPGSAWSHPQFEK
notes: as for B2
B5: lipocalin mutein SEQ ID NO: 22 (designed binder)
chain: ASDEEIQDVPGTWYLKAMTVSEEDPEMTLESVTPMTLTTLEGGNLEARVTVLIDGRCQEVKNVLEKTDEPGKYTEDGGKYVDYIIRSHVKDHYIFYFEGEGEGTPGRVVALVGRDPTNNLEALEDFEKAAGARGLSTESILIPRQSETCSPGSAWSHPQFEK
notes: as for B2
B6: lipocalin mutein SEQ ID NO: 23 (designed binder)
chain: ASDEEIQDVPGTWYLKAMTVSDEDPEMTLESVTPMTLTTLEGGNLEARVTVLIDGRCQEVKNVLEKTDEPGKYTEDGGKYVDYIIRSHVKDHYIFYFEGEGQGTPGRLVALVGRDPTNNLEALEDFEKAAGARGLSTESILIPRQSETCSPGSAWSHPQFEK
notes: as for B2
B7: lipocalin mutein SEQ ID NO: 25 (designed binder)
chain: ASDEEIQDVPGTWYLKAMTVSAEDPEMTLESVTPMTLTTLEGGNLEARVTVLIDGRCQEVKNVLEKTDEPGKYTEDGGKYVDYIIRSHVKDHYIFYFEGEGKGTPGRMVALVGRDPTNNLEALEDFEKAAGARGLSTESILIPRQSETCSPGSAWSHPQFEK
notes: as for B2
B8: lipocalin mutein SEQ ID NO: 26 (designed binder)
chain: ASDEEIQDVPGTWYLKAMTVSREDPEMTLESVTPMTLTTLEGGNLEARVTVLIDGRCQEVKNVLEKTDEPGKYTEDGGKHVDYIIRSHVKDHYIFYFEGEGQGTPNRMAALVGRDPTNNLEALEDFEKAAGARGLSTESILIPRQSETCSPGSAWSHPQFEK
notes: as for B2
B9: lipocalin mutein SEQ ID NO: 27 (designed binder)
chain: ASDEEIQDVPGTWYLKAMTVSGEDPELTLESVTPMTLTTLEGGNLEARVTVLIDGRCQEVKNVLEKTDEPGKYTEDGGKYVDYIIRSHVKDHYIFYFEGEGPGTPGRMVALVGRDPTNNLEALEDFEKAAGARGLSTESILIPRQSETCSPGSAWSHPQFEK
notes: as for B2
B10: lipocalin mutein SEQ ID NO: 57 (designed binder)
chain: TSDQEIQDVSGTWYLKAMTVDSDCFWIDDVSVTPMTLTTLRGGNLEAKVTMDIFGFWQEVEAVLGKTDRPGKYTAGGGKHAAYIIRSHVKDHYIFYSEGECAGYPVPGVWLVGRDPKNNLEALEDFEKAAGARGLSTESILIPRQSETSAPGSAWSHPQFEK
notes: as for B2
B11: lipocalin mutein SEQ ID NO: 61 (designed binder)
chain: TSNQQIQNVSGTWYLKAMTVDSDCFWIDDVSVTPMTLTTLRGGNLEAKVTMDIFGFWQEVEAVLGKTDRPGKYTAGGGKHAAYIIRSHVKDHYIFYSEGECAGYPVPGVWLVGRDPKNNLEALEDFEKAAGARGLSTESILIPRQSETSAPGSAWSHPQFEK
notes: as for B2
B12: lipocalin mutein SEQ ID NO: 63 (designed binder)
chain: ASDEEIQDVSGTWYLKAMTVDSDCFWIDDVSVTPMTLTTLRGGNLEAKVTMDIFGFWQEVEAVLERTDRPGKYTAGGGKHVAYIIRSHVKDHYIFYSEGECAGYPVPGVWLVGRDPKNNLEALEDFEKAAGARGLSTESILIPRQSETSSPGSAWSHPQFEK
notes: as for B2
B13: lipocalin mutein SEQ ID NO: 64 (designed binder)
chain: ASDEEIQDVSGTWYLKAMTVDSDCFWIDDVSVTPMTLTTLEGGNLEAKVTMDIFGFCQEVEAVLERTDEPGKYTADGGKHVAYIIRSHVKDHYIFYSEGECAGYPVPGVWLVGRDPKNNLEALEDFEKAAGARGLSTESILIPRQSETCSPGSAWSHPQFEK
notes: as for B2
B14: lipocalin mutein SEQ ID NO: 65 (designed binder)
chain: TSDEEIQDVSGTWYLKAMTVDSDCFWIDDVSVTPMTLTTLEGGNLEAKVTMDIFGFWQEVEAVLERTDEPGKYTADGGKHVAYIIRSHVKDHYIFYSEGECAGYPVPGVWLVGRDPKNNLEALEDFEKAAGARGLSTESILIPRQSETSSPGSAWSHPQFEK
notes: as for B2
B15: lipocalin mutein SEQ ID NO: 66 (designed binder)
chain: ASDEEIQDVSGTWYLKAMTVDSDCFWIDDVSVTPMTLTTLRGGNLEAKVTMDIFGFWQDVEAVLEKTDRPGKYTAGGGKHVAYIIRSHVKDHYIFYSEGECAGYPVPGVWLVGRDPKNNLEALEDFEKAAGARGLSTESILIPRLSETSSPGSAWSHPQFEK
notes: as for B2
B16: lipocalin mutein SEQ ID NO: 67 (designed binder)
chain: ASDEEIQDVSGTWYLKAMTVDSDCFWIDDVSVTPMTLTTLEGGNLEAKVTMDIFGFCQDVEAVLEKTDEPGKYTADGGKHVAYIIRSHVKDHYIFYSEGECAGYPVPGVWLVGRDPKNNLEALEDFEKAAGARGLSTESILIPRLSETCSPGSAWSHPQFEK
notes: as for B2
B17: lipocalin mutein SEQ ID NO: 68 (designed binder)
chain: TSDEEIQDVSGTWYLKAMTVDSDCFWIDDVSVTPMTLTTLEGGNLEAKVTMDIFGFWQDVEAVLEKTDEPGKYTADGGKHVAYIIRSHVKDHYIFYSEGECAGYPVPGVWLVGRDPKNNLEALEDFEKAAGARGLSTESILIPRLSETSSPGSAWSHPQFEK
notes: as for B2

Tests used:
[1] = target: T1, huLAG-3-Fc (human LAG-3 extracellular …); experiment: SPR, Fc-captured target, mutein analyte
Method: The anti-human IgG Fc antibody (GE Healthcare) was immobilized on a CM5 sensor chip using standard amine chemistry: the carboxyl groups on the chip were activated using 1-ethyl-3-(3-dimethylaminopropyl)-carbodiimide (EDC) and N-hydroxysuccinimide (NHS). […] Residual non-reacted NHS-esters were blocked by passing a solution of 1M ethanolamine across the surface. The reference channel was treated in an analogous manner.
All measurements were performed at 25° C. […] Prior to the protein measurements, three startup cycles were performed for conditioning purposes. […] Double referencing was used and the 1:1 binding model was used to fit the raw data.

[2] = target: T1, huLAG-3-Fc (human LAG-3 extracellular …); experiment: competition FACS, 3 nM huLAG-3-Fc vs MHC class II on A375 cells
[3] = target: T3, cynomolgus LAG-3 on CHO cells stably transfected with cyLAG-3 (CHO-cyLAG-3) (cynomolgus monkey); experiment: FACS on transfected CHO cells
T3 construct: whole, on cells; also called CHO::cynomolgus LAG-3

[4] = target: T2, human LAG-3 on CHO cells stably …; experiment: FACS on transfected CHO cells

| Binder | Kd [1] [nM] | koff [1] [s⁻¹] | kon [1] [M⁻¹ s⁻¹] | IC50 [2] [nM] | EC50 [3] [nM] | EC50 [4] [nM] |
| --- | --- | --- | --- | --- | --- | --- |
| B1 | 0.32 | 0.00189 | 5.86e+06 | 0.22 | 319 | 1.33 |
| B2 | 0.676 | 0.00014 | 207000 | 1.01 | 34.9 | 2.35 |
| B3 | 0.722 | 0.000135 | 188000 | 1.7 | 29.8 | 1.97 |
| B4 | 0.718 | 0.000113 | 157000 | 0.68 | 31.6 | 2.52 |
| B5 | 0.619 | 0.000145 | 234000 | 1.11 | 33.1 | 2.23 |
| B6 | 0.668 | 0.000105 | 158000 | 0.63 | 33.6 | 3.04 |
| B7 | 1.29 | 0.000142 | 110000 | 0.3 | 38.9 | 2.55 |
| B8 | 1.37 | 0.000138 | 101000 | 0.54 | 45 | 2.23 |
| B9 | 1.44 | 0.000174 | 121000 | 0.39 | 31.4 | 2.15 |
| B10 | 0.026 | 5.81e-05 | 2.21e+06 |  |  |  |
| B11 | 0.118 | 0.0019 | 1.61e+07 |  |  |  |
| B12 | 0.11 | 0.00722 | 6.59e+07 |  |  |  |
| B13 | 0.235 | 0.00785 | 3.34e+07 |  |  |  |
| B14 | 0.195 | 0.00501 | 2.58e+07 |  |  |  |
| B15 | 0.0793 | 0.00559 | 7.05e+07 |  |  |  |
| B16 | 0.213 | 0.00516 | 2.43e+07 |  |  |  |
| B17 | 0.158 | 0.00515 | 3.25e+07 |  |  |  |
